# According to a collection of fitness landscapes (doi:10.1016/j.celrep.2020.107928):
# The full ranking holds about 81,000 sequences; the median of “one-hybrid fitness for binding parS DNA” is about -0.17, and the highest 2% start at about 0.51. This is one part of the list.
# B1: Caulobacter ParB omega fusion; a variant is named by its letters at X, in order, B8GW30 (parent)
# chain: MESVVVGEPGMSEGRRGLGRGLSALLGEVDAAPAQAPGEQLGGSREAPIEILQRNPDQPRRTFREEDLEDLSNSIREKGVLQPILVRPSPDTAGEYQIVAGERAWRAAQRAGLKTVPIMVRELDDLAVLEIGIIENVQRADLNVLEEALSYKVLMEKFERTQENIAQTIGKSXSHVANXMRLLXLPDEVQSYLVSGELTAXHARAIAAAADPVALAKQIIEGGLSVRETEALARKAPNLSAGKSKGGRPPRVKDTDTQALESDLSSVLGLDVSIDHRGSTGTLTITYATLEQLDDLCNRLTRGI
# Variants of: B1
# Assay: one-hybrid fitness for binding parS DNA (scaled: cognate 1, non-cognate 0); higher = stronger binding
# Conditions: with parS DNA site
# How it was run: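 Bacterial one-hybrid selection in E. coli USO rpoZ- hisB- pyrF- with a HIS3 reporter carrying the site 19 bp from the promoter, screening Caulobacter ParB libraries with four specificity codons randomised (NNS). Cells grew 48 hours at 37°C on M9-minus-histidine plus 0.1 mM IPTG and 5 mM 3-AT. Plasmids before and after selection were Illumina-sequenced, three replicate libraries pooled, and variants under 10 reads dropped. Fitness is the log change in variant-to-wild-type read ratio, rescaled to cognate 1, non-cognate 0.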
row,Variant,one-hybrid fitness for binding parS DNA
1,PPVQ,≤ 0.2
2,AGTE,≤ 0.2
3,NEHR,≤ 0.2
4,PNNH,≤ 0.2
5,EKQP,≤ 0.2
6,RFDG,0.814
7,GPWG,≤ 0.2
8,NCYV,≤ 0.2
9,QYNL,≤ 0.2
10,ECDG,≤ 0.2
11,VWNM,≤ 0.2
12,SIGS,≤ 0.2
13,RTGI,≤ 0.2
14,GRMR,≤ 0.2
15,KHNS,≤ 0.2
16,PNAE,≤ 0.2
17,ARPT,≤ 0.2
18,FPLF,≤ 0.2
19,ADDS,≤ 0.2
20,NNIP,≤ 0.2
21,FWLT,≤ 0.2
22,TMVS,≤ 0.2
23,PARG,≤ 0.2
24,RDDT,≤ 0.2
25,EAHC,≤ 0.2

row,Variant,one-hybrid fitness for binding parS DNA
1,PWHT,≤ 0.2
2,DTSM,≤ 0.2
3,NPDS,≤ 0.2
4,VLTM,≤ 0.2
5,SRTI,≤ 0.2
6,TFVM,≤ 0.2
7,LMFS,≤ 0.2
8,MAVS,≤ 0.2
9,LDPM,≤ 0.2
10,WSHA,≤ 0.2
11,KGLI,≤ 0.2
12,GHWT,≤ 0.2
13,QYVV,≤ 0.2
14,MPPI,≤ 0.2
15,AGVS,≤ 0.2
16,TRYD,≤ 0.2
17,ARKQ,≤ 0.2
18,MYSG,≤ 0.2
19,QLEF,≤ 0.2
20,AVYL,≤ 0.2
21,QTVE,≤ 0.2
22,VNTC,≤ 0.2
23,PPYI,≤ 0.2
24,VNLC,≤ 0.2
25,DRLL,≤ 0.2

row,Variant,one-hybrid fitness for binding parS DNA
1,PLRM,≤ 0.2
2,QRLS,≤ 0.2
3,PRCA,≤ 0.2
4,SYET,≤ 0.2
5,VTPY,≤ 0.2
6,RLDG,0.931
7,QHVP,≤ 0.2
8,KSQQ,≤ 0.2
9,NPEC,≤ 0.2
10,CWHV,≤ 0.2
11,PEGS,≤ 0.2
12,QVMC,≤ 0.2
13,GSKG,≤ 0.2
14,SYTW,≤ 0.2
15,IQTN,≤ 0.2
16,TKNK,≤ 0.2
17,RASV,≤ 0.2
18,NCWG,≤ 0.2
19,RVRT,0.825
20,SDWG,≤ 0.2
21,GKTG,≤ 0.2
22,RLRH,0.223
23,AWPK,≤ 0.2
24,QLMI,≤ 0.2
25,CGAW,≤ 0.2

row,Variant,one-hybrid fitness for binding parS DNA
1,WDDL,≤ 0.2
2,DWSD,≤ 0.2
3,RFMG,0.864
4,DRSH,≤ 0.2
5,RIKN,0.451
6,ESTD,≤ 0.2
7,LFLR,≤ 0.2
8,YGMR,≤ 0.2
9,HYGP,≤ 0.2
10,ACEY,≤ 0.2
11,TNCW,≤ 0.2
12,QCEV,≤ 0.2
13,NAVC,≤ 0.2
14,LIMY,≤ 0.2
15,ECKA,≤ 0.2
16,NITV,≤ 0.2
17,THRM,≤ 0.2
18,HTIS,≤ 0.2
19,ALST,≤ 0.2
20,NDGC,≤ 0.2
21,SDMR,≤ 0.2
22,KMRA,≤ 0.2
23,TYRT,≤ 0.2
24,DGHH,0.304
25,WYVL,≤ 0.2

row,Variant,one-hybrid fitness for binding parS DNA
1,PSQR,≤ 0.2
2,SYGD,≤ 0.2
3,DHGK,≤ 0.2
4,DPVR,≤ 0.2
5,ITGC,≤ 0.2
6,RGSG,0.771
7,AARV,≤ 0.2
8,QVYT,≤ 0.2
9,IEPF,≤ 0.2
10,SRSM,≤ 0.2
11,CRPY,≤ 0.2
12,LSAA,≤ 0.2
13,RKIS,0.958
14,AHHT,≤ 0.2
15,SETL,≤ 0.2
16,LRIF,≤ 0.2
17,IITM,≤ 0.2
18,ASMF,≤ 0.2
19,RRPL,≤ 0.2
20,AWSF,≤ 0.2
21,HVKC,≤ 0.2
22,CTRS,≤ 0.2
23,HPWS,≤ 0.2
24,KEPG,≤ 0.2
25,RGCE,≤ 0.2

row,Variant,one-hybrid fitness for binding parS DNA
1,YYMR,≤ 0.2
2,MDRG,≤ 0.2
3,KRAK,≤ 0.2
4,ICLT,≤ 0.2
5,FRMR,≤ 0.2
6,RGYW,≤ 0.2
7,SDTC,≤ 0.2
8,CNNM,≤ 0.2
9,MNMS,≤ 0.2
10,NQIG,≤ 0.2
11,NYVT,≤ 0.2
12,HQIT,≤ 0.2
13,ECSL,≤ 0.2
14,NSWT,≤ 0.2
15,VNLA,≤ 0.2
16,QYVN,≤ 0.2
17,ILAW,≤ 0.2
18,GELS,≤ 0.2
19,HIVF,≤ 0.2
20,QPLY,≤ 0.2
21,SLQR,≤ 0.2
22,QNTF,≤ 0.2
23,ENAK,≤ 0.2
24,HCVS,≤ 0.2
25,SVQC,≤ 0.2

row,Variant,one-hybrid fitness for binding parS DNA
1,QTSQ,≤ 0.2
2,HVLC,≤ 0.2
3,LWRH,≤ 0.2
4,FHHS,≤ 0.2
5,LLHG,≤ 0.2
6,DFDT,≤ 0.2
7,NMDD,≤ 0.2
8,NNPF,≤ 0.2
9,RECD,≤ 0.2
10,IVRV,≤ 0.2
11,VCIL,≤ 0.2
12,SIHD,≤ 0.2
13,PYDG,≤ 0.2
14,FSHT,≤ 0.2
15,YNGW,0.204
16,VTKA,≤ 0.2
17,PPYD,≤ 0.2
18,YHSN,≤ 0.2
19,GFWS,≤ 0.2
20,PEEL,≤ 0.2
21,DRTI,≤ 0.2
22,HAIV,≤ 0.2
23,GLSS,≤ 0.2
24,VKNG,≤ 0.2
25,QKQL,≤ 0.2

row,Variant,one-hybrid fitness for binding parS DNA
1,PTNC,≤ 0.2
2,VEAL,≤ 0.2
3,TSDV,≤ 0.2
4,GRFV,≤ 0.2
5,MTPC,≤ 0.2
6,VAIH,≤ 0.2
7,GKSP,≤ 0.2
8,NQSW,≤ 0.2
9,SHMR,≤ 0.2
10,RRLW,≤ 0.2
11,GSCV,≤ 0.2
12,QKQE,≤ 0.2
13,RVES,0.948
14,ESKS,≤ 0.2
15,QGIV,≤ 0.2
16,RTFA,0.592
17,SRAQ,≤ 0.2
18,SRSV,≤ 0.2
19,QKRK,≤ 0.2
20,ARTM,≤ 0.2
